The supplement of paper PMC10338343
± gives the standard deviation. The full ranking holds about 5,500 sequences; the median of “pre-steady-state target cleavage rate” is about 0.1, and the highest 2% start at about 0.64. Only a part is listed here, and it is no random draw.

Tested on: MIWI (PIWIL1) piRISC loaded with piRNA #2 (30 nt)
Experiment: pre-steady-state target cleavage rate (min^-1); MIWI and MILI are mouse PIWI proteins and EfPiwi is from a freshwater sponge; tags in brackets are library labels; higher = faster piRNA-guided slicing of the target
Conditions: guide: piRNA #2 5'p-UUAGGUAACCCAGUAGAUCCAGAGGAAUUC; auxiliary factor: 500 nM mouse GTSF1
How it was run: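 A transcribed, DNA-blocked target RNA library […] was incubated at 33 °C for 0–8 or 0–960 min with 1 nM active affinity-purified piRISC carrying one synthetic guide, in HEPES–potassium acetate buffer with or without 500 nM GTSF1 partner protein. Uncleaved targets were then sequenced and normalised to depth and to weakly complementary targets. Data from three trials were pooled, with k3 capped at 0.0001 min^-1, and a burst-and-steady-state fit yielded the pre-steady-state cleavage rate.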

Row | Sequence | pre-steady-state target cleavage rate
1 | CUUAAGGACUGGAUCUACUGGGUUUACCUAA | 0.123 ± 0.059
2 | CUUAAGGAGACCUAGAUCUGGGUUACGAAA | < 0.0001
3 | CUUAAGGUCUGGUAUCUACUGGGUUACCUAA | 0.157 ± 0.02
4 | CUUAUCCUCUGGAUCUACUGGCGUUACCUAA | 0.00393 ± 0.003
5 | CUAUUCCUCACGAUCUACUGGGUUACCUAA | 0.659 ± 0.042
6 | CUUUUCCUCUCGAUCUACUGGGUUAGCUAA | 0.362 ± 0.038
7 | GAUAUCCUCUGGAUCUACUGGGUUACCUAA | 0.121 ± 0.037
8 | CUUUUCCUCUGGAUCUACUGGGUAUGCUAA | 0.0185 ± 0.0056
9 | CUUAACCUCUGUGAUCUACUGGGUUACCUAA | 0.25 ± 0.024
10 | CAAAUCCUCUGGAUCUUCUGGGUUACCUAA | 0.44 ± 0.056
11 | CUUAAGGUCUGGAUCUACUGGGUUACACUAA | 0.345 ± 0.043
12 | CUUAACCUCUCGAUCUACAGGGUUACCUAA | 0.293 ± 0.018
13 | CUUAAGGAGUGGAUCUACUGGGUUACAUAA | 0.354 ± 0.052
14 | CUUUUCCUCUGGAUCUACUGGGAUAGCUAA | 0.14 ± 0.034
15 | CUUAAGGAGAGGAUCUACUGGGUUACCGUAA | 0.00436 ± 0.0037
16 | CUUAAGGUCUGCAUCUACUGGGUAACCUAA | 0.0258 ± 0.023
17 | CUUAAGGUCUGAGAUCUACUGGGUUACCUAA | 0.227 ± 0.029
18 | CUAUUCCUCUGCAUCUACUGGGUUUCCUAA | 0.332 ± 0.11
19 | CUUUUCCUCUGGAUCUACUGGGUUAGCUUA | 0.199 ± 0.045
20 | CAAUUCCUCUGGAUCCACUGGGUUACCUAA | 0.362 ± 0.051
21 | CUUAAGCUCUGGAUCUACUGGGUUACGUUA | 0.198 ± 0.025
22 | CUUUUCCUCUGGAUCUACUGGCUUACCUUA | 0.0532 ± 0.011
23 | GAAUUCCUCAGGAUCUACUGGGUUAGCUAA | 0.301 ± 0.032
24 | CUUAAGCUCUGGAUCAUACUGGGUUACCUAA | 0.00474 ± 0.0033

Row | Sequence | pre-steady-state target cleavage rate
25 | CUUAACCUGACGAUCUACUGGGUUACCUAA | 0.0514 ± 0.015
26 | GAAUUCCUGUGGAUCUACUGGGUUACCUAA | 0.367 ± 0.043
27 | CAAUUCCUGUGGAUCUACUGGGUUACGUAA | 0.428 ± 0.075
28 | CUUAUCCUCUGGAUCUACUCCGUUACCUAA | 0.021 ± 0.009
29 | CAAAUCCUCUGGAUCUAGUGGGUUACCUAA | 0.195 ± 0.025
30 | CAAUUCCUGUGGUUCUACUGGGUUACCUAA | 0.46 ± 0.034
31 | CUUAAGCUCUGCGAUCUACUGGGUUACCUAA | 0.151 ± 0.025
32 | CUUAUGCUCAGGAUCUACUGGGUUACCUAA | 0.368 ± 0.038
33 | CUUAUCCUCUGGAUCUACUGGGUGACCUAA | 0.296 ± 0.032
34 | GAAUUCCACUGCAUCUACUGGGUUACCUAA | 0.574 ± 0.037
35 | CUUAAGGAGUGGAUCUACUGGGUUACCUUAA | 0.0734 ± 0.018
36 | CAAUUCCUCUGGAACUACUGGCUUACCUAA | 0.161 ± 0.023
37 | CUAUUCCACUGGAUCUUCUGGGUUACCUAA | 0.489 ± 0.07
38 | CAAUUCCUCUGGAUCAACUGGGUUAGCUAA | 0.177 ± 0.049
39 | GAAUUCCUCUGGAUCUACAGCGUUACCUAA | 0.152 ± 0.02
40 | CUUAACCUCUGGAUCUACUGCGUUUCCUAA | 0.0654 ± 0.013
41 | CUUAAGCUCUGGAUCUACAGGCUUACCUAA | 0.0352 ± 0.0085
42 | GAAUUCCUCUGGUAUCUACUGGGUUACCUAA | 0.484 ± 0.091
43 | CUUAUCCUCUGGAUCUUCUCGGUUACCUAA | 0.0624 ± 0.011
44 | CUAAUCCUCUGGAUCUACUGGGAUACCUAA | 0.274 ± 0.029
45 | CAAUUCCACUGGAUCUACUGGCUUACCUAA | 0.0613 ± 0.019
46 | GAAUUCCUCUGGAUCUACUGGGUUACCUCAA | 0.35 ± 0.061
47 | CUUAAGGAGACCUUCUUCUGCGUUACCUAA | 0.00449 ± 0.0027
48 | CUUUUCCUCUGGAUCAACUGGGAUACCUAA | 0.176 ± 0.023

Row | Sequence | pre-steady-state target cleavage rate
49 | CUUAAGCUCUGGAUCUACUGGAUUACCUAA | 0.196 ± 0.025
50 | GAAUACCUGUGGAUCUACUGGGUUACCUAA | 0.301 ± 0.058
51 | CUUAUCCUCUGGAUCUACUGGGAUACCAAA | 0.274 ± 0.075
52 | CUUAUCCUCUGGAUCUACUGGGUUACCAA | 0.488 ± 0.086
53 | CAAUUCCUCUGGAUCUACUGGGUUCCUAA | 0.00946 ± 0.0064
54 | CAAUUCGUCUGGAUCUACUGGGUUAGCUAA | 0.192 ± 0.051
55 | CUAUUCCUACUGGAUCUACUGGGUUACCUAA | 0.544 ± 0.065
56 | CUUAUCCUCUCGAUCUACUGGGAUACCUAA | 0.408 ± 0.032
57 | CUUUUCCUCUGCAUCUACUGGGUUAGCUAA | 0.202 ± 0.022
58 | CAAUAGCUCUGGAUCUACUGGGUUACCUAA | 0.144 ± 0.034
59 | CUUAAGCUGUGGAUCUACUGGGUUACCUUA | 0.144 ± 0.03
60 | CUUAAGGUCUGGAUCUACUCCGUUACCUAA | 0.01 ± 0.0088
61 | CUAAUCCUCUGGAUCUACAGGGUUACCUAA | 0.285 ± 0.025
62 | CUUAAGGAGACCUAGAACUGGGUUACCAUA | < 0.0001
63 | GAAUUGCUCUGCAUCUACUGGGUUACCUAA | 0.135 ± 0.046
64 | CUUAAGCUCAGGAACUACUGGGUUACCUAA | 0.284 ± 0.024
65 | CUUAAGGACUGGAUCAACUGCGUUACCUAA | 0.0365 ± 0.033
66 | CUUUUCCUCUGGAUCUACUCGGUUACCAAA | 0.063 ± 0.016
67 | CUUAAGGAGUGGAUCUACUGGGUUACCUGAA | 0.0357 ± 0.012
68 | CUUUUCCUCUGGAUCUACUGGGUCACCUAA | 0.23 ± 0.041
69 | CUUAAGGAGAGGACCUACUGGGUUACCUAA | 0.0487 ± 0.011
70 | CUAUUCCACUGGAUCUACUGGCUUACCUAA | 0.0721 ± 0.015
71 | CUUAUCCACUGGAUCUACUGGGUUACGUAA | 0.458 ± 0.057
72 | GAAUUCCUCUGGAUCUACUGGGUUACCUAAA | 0.272 ± 0.043
